Measurements as given in PubChem BioAssay (NCATS).
The shares of active, inactive and inconclusive entries below differ from those in the screen. For some assays here: A potency beside an inconclusive call is a rough fit, not a confirmed value. Calls of active or inactive are those of the source. The call rests on the fitted dose curve; in most records, active means well fitted curve in the direction sought with a large enough effect; inconclusive means small, poorly fitted or top-dose-only effect, or another doubt; inactive means no such curve, though single readings can be large; an effect the other way counts as inactive or inconclusive.

How the values were obtained:
[1] = qHTS of pediatric cancer cell lines to identify multiple opportunities for drug repurposing: Primary screen for NB-EBc1 cells (AID 1347095); further: potency means the concentration at half of the fitted maximal effect
Summary of the method: (§1)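 CRCs from 8- or 11-point titrations (lowest final 0.59 nM NPC, 0.78 nM MIPE). Cell viability: CellTiter-Glo after 48 h incubation, 15 min room-temperature development, luminescence imaging.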

[2] = qHTS of pediatric cancer cell lines to identify multiple opportunities for drug repurposing: Primary screen for Saos-2 cells (AID 1347097); further: on the % scale 0 is the no-effect control and ±100 the full control effect; nearly all actives have a fitted effect of over 40% in size
Summary of the method: as §1

[3] = qHTS of pediatric cancer cell lines to identify multiple opportunities for drug repurposing: Primary screen for NB1643 cells (AID 1347099); further: potency means the concentration at half of the fitted maximal effect; nearly all actives have a fitted effect of over 50% in size
Summary of the method: as §1

[4] = qHTS of pediatric cancer cell lines to identify multiple opportunities for drug repurposing: Primary screen for RD cells (AID 1347104); settings: RD rhabdomyosarcoma viability, CellTiter-Glo luminescence, 48 h; at 46 µM (top of the series) unless noted;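 further: plate controls were DMSO for no effect and bortezomib for full effect; nearly all actives have a fitted effect of over 55% in size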
Summary of the method: as §1

[5] = biological target: Calcium and integrin-binding protein 1 (Homo sapiens) (UniProt Q99828); experiment: Primary qHTS for Identification of Calcium Integrin Binding Protein 1 (CIB1) Competitor (AID 1508620); settings: CIB1-GST / FITC-alphaIIb peptide fluorescence polarization; at 57.7 µM (top of the series);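 further: GST tagged CIB1 binding a fluorescein labelled alphaIIb integrin peptide tracer; top concentration of the series differs between compounds; on the % scale 0 is the no-effect control and ±100 the full control effect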
UniProt Q99828, sequence (Q99828 whole entry, looked up): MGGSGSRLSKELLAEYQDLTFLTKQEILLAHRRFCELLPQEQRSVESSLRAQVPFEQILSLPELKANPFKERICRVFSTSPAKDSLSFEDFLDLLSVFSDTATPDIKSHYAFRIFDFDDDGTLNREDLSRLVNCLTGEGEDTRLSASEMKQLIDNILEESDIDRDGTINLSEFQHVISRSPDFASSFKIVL
Summary of the method: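 Fluorescence polarization competition: GST-tagged CIB1 (1 uM final) preincubated with compound 15 min at room temperature, then FITC-labelled alphaIIb peptide (100 nM final) added. After 15 min at room temperature, polarization read at Ex 480/Em 540.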

[6] = Quantitative High-Throughput drug screen in 47 multiple myeloma cell lines against the NCATS MIPE library collection: FR4_PLB cell viability assay (AID 1918924; further: nearly all actives have a fitted effect of over 35% in size); settings: FR4_PLB myeloma cells viability, CellTiter-Glo ATP, 48 h; at 45.8 µM (top of the series)
Summary of the method: (§2)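 Steps: seed 500 cells per well; pin-transfer MIPE 4.0 library; incubate 48 h at 37C, 5% CO2, humidified; add CellTiter-Glo, 5 min room temperature; read luminescence.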

[7] = Quantitative High-Throughput drug screen in 47 multiple myeloma cell lines against the NCATS MIPE library collection: Delta47_JCRB cell viability assay (AID 1918925; further: nearly all actives have a fitted effect of over 45% in size)
Summary of the method: (§3)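 Viability readout: CellTiter-Glo luminescence following 5 min room-temperature incubation with reagent. Prior exposure: 48 h, 37C, humidified 5% CO2, 500 cells per well.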

[8] = Quantitative High-Throughput drug screen in 47 multiple myeloma cell lines against the NCATS MIPE library collection: EJM_DSMZ cell viability assay (AID 1918926; further: potency means the concentration at half of the fitted maximal effect; nearly all actives have a fitted effect of over 30% in size)
Summary of the method: as §3

[9] = Quantitative High-Throughput drug screen in 47 multiple myeloma cell lines against the NCATS MIPE library collection: AMO1_DSMZ cell viability assay (AID 1918927; further: potency means the concentration at half of the fitted maximal effect; nearly all actives have a fitted effect of over 30% in size); settings: AMO1 myeloma cells viability, CellTiter-Glo ATP luminescence, 48 h
Summary of the method: as §3

[10] = Quantitative High-Throughput drug screen in 47 multiple myeloma cell lines against the NCATS MIPE library collection: ARP1_JJKsccF8 cell viability assay (AID 1918928; further: potency means the concentration at half of the fitted maximal effect; nearly all actives have a fitted effect of over 40% in size)
Summary of the method: (§4)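 CellTiter-Glo luminescence after 48 h exposure gives viability, scaled between DMSO-only (100%) and media-only (0%) controls. Library compounds are pinned onto 500 myeloma cells per well, incubated at 37C with 5% CO2.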

[11] = Quantitative High-Throughput drug screen in 47 multiple myeloma cell lines against the NCATS MIPE library collection: ARD_JJKsccE7 cell viability assay (AID 1918929)
Summary of the method: as §3

[12] = Quantitative High-Throughput drug screen in 47 multiple myeloma cell lines against the NCATS MIPE library collection: KMM1_JCRB cell viability assay (AID 1918960); settings: KMM1 myeloma viability, CellTiter-Glo ATP luminescence, 48 h; further: potency means the concentration at half of the fitted maximal effect; nearly all actives have a fitted effect of over 30% in size
Summary of the method: as §4

[13] = Quantitative High-Throughput drug screen in 47 multiple myeloma cell lines against the NCATS MIPE library collection: Karpas417_ECACC cell viability assay (AID 1918961); settings: Karpas417 myeloma viability, CellTiter-Glo ATP luminescence, 48 h; further: potency means the concentration at half of the fitted maximal effect
Summary of the method: (§5)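 CellTiter-Glo luminescence (ATP) after 48 h compound exposure, 37C/5% CO2; 500 cells/well; MIPE 4.0 approved/investigational drugs pinned in; DMSO = 100%, media only = 0% viability.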

[14] = Quantitative High-Throughput drug screen in 47 multiple myeloma cell lines against the NCATS MIPE library collection: KHM11_PLB cell viability assay (AID 1918962); further: nearly all actives have a fitted effect of over 35% in size
Summary of the method: as §2

[15] = Quantitative High-Throughput drug screen in 47 multiple myeloma cell lines against the NCATS MIPE library collection: JIM1_ECACC cell viability assay (AID 1918964)
Summary of the method: as §3

[16] = Quantitative High-Throughput drug screen in 47 multiple myeloma cell lines against the NCATS MIPE library collection: INA6_PLB cell viability assay (AID 1918965; further: nearly all actives have a fitted effect of over 55% in size)
Summary of the method: as §5

[17] = Quantitative High-Throughput drug screen in 47 multiple myeloma cell lines against the NCATS MIPE library collection: JJN3_DSMZ cell viability assay (AID 1918966; further: potency means the concentration at half of the fitted maximal effect; nearly all actives have a fitted effect of over 50% in size); settings: JJN3 myeloma cells viability, CellTiter-Glo ATP, 48 h; viability, % of DMSO: at 45.8 µM (top of the series)
Summary of the method: as §3

[18] = Quantitative High-Throughput drug screen in 47 multiple myeloma cell lines against the NCATS MIPE library collection: H1112_PLB cell viability assay (AID 1918967; further: nearly all actives have a fitted effect of over 30% in size)
Summary of the method: as §3

[19] = Quantitative High-Throughput drug screen in 47 multiple myeloma cell lines against the NCATS MIPE library collection: Karpas25_ECACC cell viability assay (AID 1918968; further: potency means the concentration at half of the fitted maximal effect; nearly all actives have a fitted effect of over 35% in size); settings: Karpas25 myeloma viability, CellTiter-Glo ATP, 48 h
Summary of the method: as §3

[20] = Quantitative High-Throughput drug screen in 47 multiple myeloma cell lines against the NCATS MIPE library collection: KMS27_JCRB cell viability assay (AID 1918970); settings: KMS27 myeloma cells, CellTiter-Glo ATP viability, 48 h; at 45.8 µM (top of the series); further: nearly all actives have a fitted effect of over 30% in size
Summary of the method: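 CellTiter-Glo luminescence after 48 h drug exposure at 37 °C; 500 cells/well, 1536-well format, pin-tool compound addition; DMSO = 100%, media-only = 0% viability.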
Tags describe the fitted curve by direction and shape.

Clc1ccccc1C(c1ccccc1)(c1ccccc1)n1cccn1
inconclusive: Potency [1] 20.9 µM [cytotoxic, partial curve] | Potency [3] 18.7 µM [cytotoxic, partial curve] | Potency [8] 14.8 µM [cytotoxic, partial curve, poor fit] | Potency [9] 4.18 µM [cytotoxic, partial curve, poor fit] | Potency [10] 33.2 µM [cytotoxic, single point] | Potency [12] 1.32 µM [cytotoxic, partial curve, poor fit] | Potency [13] 20.9 µM [rising, partial curve] | Potency [17] 5.26 µM [cytotoxic, partial curve, poor fit] | Potency [19] 7.43 µM [cytotoxic, partial curve, poor fit]
inactive: Potency [2] | activity change, negative = cytotoxic [4] -5.19% | activity change, negative = inhibition [5] -1.95% | viability (% of DMSO control) [6] 106% | Potency [7] | Potency [11] | Potency [14] | Potency [15] | Potency [16] | Potency [18] | viability (% of DMSO) [20] 122%
